In the supplement of paper PMC4604168 (melanoma cell lines):
The other results are listed elsewhere or left out. Most values come without repeats; read them as rough.

Columns and labels:
Assay in all cases: cell count relative to DMSO control; melanoma cells; higher = more viable cells
Settings in all cases: library dose: low library concentration; 72 h
[1] = test system: WM115
[2] = test system: WM1716
[3] = test system: WM1745
[4] = test system: WM3526
[5] = test system: WM3619
[6] = test system: WM451Lu
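Note: cell number obtained by counting DAPI-stained nuclei in high-throughput microscope images with image analysis software, screen run in 1,536-well plates.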

C=CCNC1=C2C[C@@H](C)C[C@H](OC)[C@H](O)[C@@H](C)/C=C(\C)[C@H](OC(N)=O)[C@@H](OC)/C=C\C=C(/C)C(=O)NC(=CC1=O)C2=O [Tanespimycin] + COCC[n+]1c2c(n(Cc3cnccn3)c1C)C(=O)c1ccccc1C2=O [YM155] (first compound 0.002 µM, partner dose 0.0004 µM)
cell count [1]: 111% | cell count [2]: 99.5% | cell count [3]: 97.5% | cell count [4]: 104% | cell count [5]: 107% | cell count [6]: 76.3%

C[C@@H](Oc1cc(-c2cnn(C3CCNCC3)c2)cnc1N)c1c(Cl)ccc(F)c1Cl [Crizotinib] + CC(=O)c1c(C)c2cnc(Nc3ccc(N4CCNCC4)cn3)nc2n(C2CCCC2)c1=O [palbociclib] (first compound 0.2 µM, partner dose 0.04 µM)
cell count [1]: 76.8% | cell count [2]: 70.4% | cell count [3]: 79% | cell count [4]: 52.4% | cell count [5]: 81% | cell count [6]: 76.1%

C[C@@H](Oc1cc(-c2cnn(C3CCNCC3)c2)cnc1N)c1c(Cl)ccc(F)c1Cl [Crizotinib] + OCc1c[nH]c2ccccc12 [Indole-3-carbinol] (first compound 0.2 µM, partner dose 0.8 µM)
cell count [1]: 90.4% | cell count [2]: 102% | cell count [3]: 95% | cell count [4]: 114% | cell count [5]: 114% | cell count [6]: 83.2%

CN1CCN(c2ccc3nc(-c4c(N)c5c(F)cccc5[nH]c4=O)[nH]c3c2)CC1 [Dovitinib] + Cn1cc(/C=C2\C(=O)Nc3cccnc32)c2ccccc21 [GW441756] (first compound 0.1 µM, partner dose 0.4 µM)
cell count [1]: 92.9% | cell count [2]: 140% | cell count [3]: 81.5% | cell count [4]: 94.6% | cell count [5]: 84.9% | cell count [6]: 108%

CS(=O)(=O)CCNCc1ccc(-c2ccc3ncnc(Nc4ccc(OCc5cccc(F)c5)c(Cl)c4)c3c2)o1 [lapatinib] + COC(=O)c1sccc1S(=O)(=O)Nc1ccc(Nc2ccccc2)cc1OC [GSK0660] (first compound 0.8 µM, partner dose 1 µM)
cell count [1]: 104% | cell count [2]: 111% | cell count [3]: 111% | cell count [4]: 97.4% | cell count [5]: 98.2% | cell count [6]: 97.8%

C=CCNC1=C2C[C@@H](C)C[C@H](OC)[C@H](O)[C@@H](C)/C=C(\C)[C@H](OC(N)=O)[C@@H](OC)/C=C\C=C(/C)C(=O)NC(=CC1=O)C2=O [Tanespimycin] + CC1(C)NC(=O)N(c2ccc([N+](=O)[O-])c(C(F)(F)F)c2)C1=O [nilutamide] (first compound 0.002 µM, partner dose 1 µM)
cell count [1]: 87.1% | cell count [2]: 137% | cell count [3]: 113% | cell count [4]: 104% | cell count [5]: 90.1% | cell count [6]: 76.4%

CNC(=O)c1cc(Oc2ccc(NC(=O)Nc3ccc(Cl)c(C(F)(F)F)c3)cc2)ccn1 [sorafenib] + CCCCCCCCCCCC1=C(O)C(=O)C=C(O)C1=O [Embelin] (first compound 0.4 µM, partner dose 1.2 µM)
cell count [1]: 108% | cell count [2]: 93.8% | cell count [3]: 91.6% | cell count [4]: 135% | cell count [5]: 99.7% | cell count [6]: 99.1%

CS(=O)(=O)CCNCc1ccc(-c2ccc3ncnc(Nc4ccc(OCc5cccc(F)c5)c(Cl)c4)c3c2)o1 [lapatinib] + Cc1ccc(NC(=O)c2cccc(N(C)C)c2)cc1NC(=O)c1ccc(O)cc1 [ZM336372] (first compound 0.8 µM, partner dose 2 µM)
cell count [1]: 88.9% | cell count [2]: 95.8% | cell count [3]: 89.2% | cell count [4]: 100% | cell count [5]: 92.3% | cell count [6]: 103%

C=CCNC1=C2C[C@@H](C)C[C@H](OC)[C@H](O)[C@@H](C)/C=C(\C)[C@H](OC(N)=O)[C@@H](OC)/C=C\C=C(/C)C(=O)NC(=CC1=O)C2=O [Tanespimycin] + O=C(Nc1ccccc1)c1cc([N+](=O)[O-])ccc1Cl [GW9662] (first compound 0.002 µM, partner dose 2 µM)
cell count [1]: 89.5% | cell count [2]: 103% | cell count [3]: 95% | cell count [4]: 109% | cell count [5]: 97.2% | cell count [6]: 101%

CN1CCN(c2ccc3nc(-c4c(N)c5c(F)cccc5[nH]c4=O)[nH]c3c2)CC1 [Dovitinib] + O=C1NC(=O)/C(=C/c2ccc(-c3ccc(F)cc3O)o2)S1 [AS252424] (first compound 0.1 µM, partner dose 1 µM)
cell count [1]: 90.3% | cell count [2]: 117% | cell count [3]: 80.8% | cell count [4]: 91.1% | cell count [5]: 87.2% | cell count [6]: 92.7%

C=CCNC1=C2C[C@@H](C)C[C@H](OC)[C@H](O)[C@@H](C)/C=C(\C)[C@H](OC(N)=O)[C@@H](OC)/C=C\C=C(/C)C(=O)NC(=CC1=O)C2=O [Tanespimycin] + C[C@]1(c2nc3c(C(N)=O)cccc3[nH]2)CCCN1 [Veliparib] (first compound 0.002 µM, partner dose 1.4 µM)
cell count [1]: 83.5% | cell count [2]: 88.8% | cell count [3]: 77.9% | cell count [4]: 99.8% | cell count [5]: 101% | cell count [6]: 74.9%

CS(=O)(=O)CCNCc1ccc(-c2ccc3ncnc(Nc4ccc(OCc5cccc(F)c5)c(Cl)c4)c3c2)o1 [lapatinib] + Nc1cccc2c1CN(C1CCC(=O)NC1=O)C2=O [lenalidomide] (first compound 0.8 µM, partner dose 1 µM)
cell count [1]: 94.8% | cell count [2]: 81.2% | cell count [3]: 81.4% | cell count [4]: 78.3% | cell count [5]: 97.2% | cell count [6]: 107%

C=CCNC1=C2C[C@@H](C)C[C@H](OC)[C@H](O)[C@@H](C)/C=C(\C)[C@H](OC(N)=O)[C@@H](OC)/C=C\C=C(/C)C(=O)NC(=CC1=O)C2=O [Tanespimycin] + CN(C)S(=O)(=O)c1ccc2c(c1)/C(=C/c1cc3c([nH]1)CCCC3)C(=O)N2 [SU6656] (first compound 0.002 µM, partner dose 0.4 µM)
cell count [1]: 56.3% | cell count [2]: 106% | cell count [3]: 63.7% | cell count [4]: 148% | cell count [5]: 45.3% | cell count [6]: 92.5%

C[C@@H](Oc1cc(-c2cnn(C3CCNCC3)c2)cnc1N)c1c(Cl)ccc(F)c1Cl [Crizotinib] + CO[C@@H]1[C@H](N(C)C(=O)c2ccccc2)C[C@H]2O[C@]1(C)n1c3ccccc3c3c4c(c5c6ccccc6n2c5c31)C(=O)NC4 [Midostaurin] (first compound 0.2 µM, partner dose 0.08 µM)
cell count [1]: 68% | cell count [2]: 69.1% | cell count [3]: 81.6% | cell count [4]: 90.5% | cell count [5]: 87.4% | cell count [6]: 109%

CNC(=O)c1cc(Oc2ccc(NC(=O)Nc3ccc(Cl)c(C(F)(F)F)c3)cc2)ccn1 [sorafenib] + COc1cc(Nc2ncc(F)c(Nc3ccc4c(n3)NC(=O)C(C)(C)O4)n2)cc(OC)c1OC [Tamatinib] (first compound 0.4 µM, partner dose 0.4 µM)
cell count [1]: 100% | cell count [2]: 106% | cell count [3]: 75.5% | cell count [4]: 75.5% | cell count [5]: 94.9% | cell count [6]: 106%

C[C@@H](Oc1cc(-c2cnn(C3CCNCC3)c2)cnc1N)c1c(Cl)ccc(F)c1Cl [Crizotinib] + COc1ccc(-c2ccc3c(N4CCOCC4)nc(N4C[C@@H](C)O[C@@H](C)C4)nc3n2)cc1CO [KU0063794] (first compound 0.2 µM, partner dose 0.02 µM)
cell count [1]: 106% | cell count [2]: 95.5% | cell count [3]: 96.3% | cell count [4]: 91.9% | cell count [5]: 89.1% | cell count [6]: 98.2%

C=CCNC1=C2C[C@@H](C)C[C@H](OC)[C@H](O)[C@@H](C)/C=C(\C)[C@H](OC(N)=O)[C@@H](OC)/C=C\C=C(/C)C(=O)NC(=CC1=O)C2=O [Tanespimycin] + C[C@@H]1CCN(C(=O)CC#N)C[C@@H]1N(C)c1ncnc2[nH]ccc12 [CP690550] (first compound 0.002 µM, partner dose 1 µM)
cell count [1]: 93.7% | cell count [2]: 101% | cell count [3]: 78.8% | cell count [4]: 95.3% | cell count [5]: 93.4% | cell count [6]: 98.8%

CS(=O)(=O)CCNCc1ccc(-c2ccc3ncnc(Nc4ccc(OCc5cccc(F)c5)c(Cl)c4)c3c2)o1 [lapatinib] + O=C(O)c1ccc2c(c1)nc(Nc1cccc(Cl)c1)c1ccncc12 [CX4945] (first compound 0.8 µM, partner dose 0.4 µM)
cell count [1]: 100% | cell count [2]: 101% | cell count [3]: 111% | cell count [4]: 87.6% | cell count [5]: 108% | cell count [6]: 113%

C[C@@H](Oc1cc(-c2cnn(C3CCNCC3)c2)cnc1N)c1c(Cl)ccc(F)c1Cl [Crizotinib] + CN1CCN(c2ccc3nc(-c4c(N)c5c(F)cccc5[nH]c4=O)[nH]c3c2)CC1 [Dovitinib] (first compound 0.2 µM, partner dose 0.1 µM)
cell count [1]: 82.7% | cell count [2]: 123% | cell count [3]: 97.5% | cell count [4]: 104% | cell count [5]: 118% | cell count [6]: 99.9%

CNC(=O)c1cc(Oc2ccc(NC(=O)Nc3ccc(Cl)c(C(F)(F)F)c3)cc2)ccn1 [sorafenib] + OCCn1cc(-c2cnc3nnn(Cc4ccc5ncccc5c4)c3n2)cn1 [PF04217903] (first compound 0.4 µM, partner dose 1 µM)
cell count [1]: 89.4% | cell count [2]: 90.3% | cell count [3]: 81.2% | cell count [4]: 95.5% | cell count [5]: 118% | cell count [6]: 69.6%

C=CCNC1=C2C[C@@H](C)C[C@H](OC)[C@H](O)[C@@H](C)/C=C(\C)[C@H](OC(N)=O)[C@@H](OC)/C=C\C=C(/C)C(=O)NC(=CC1=O)C2=O [Tanespimycin] + Cc1nc(Nc2ncc(C(=O)Nc3c(C)cccc3Cl)s2)cc(N2CCN(CCO)CC2)n1 [dasatanib] (first compound 0.002 µM, partner dose 0.004 µM)
cell count [1]: 88.9% | cell count [2]: 99% | cell count [3]: 49.2% | cell count [4]: 83.2% | cell count [5]: 64.8% | cell count [6]: 86.3%

CNC(=O)c1cc(Oc2ccc(NC(=O)Nc3ccc(Cl)c(C(F)(F)F)c3)cc2)ccn1 [sorafenib] + O=C(CCCCCCC(=O)Nc1ccccc1)NO [vorinostat] (first compound 0.4 µM, partner dose 0.08 µM)
cell count [1]: 119% | cell count [2]: 109% | cell count [3]: 91.2% | cell count [4]: 63.5% | cell count [5]: 94.9% | cell count [6]: 82.9%

CS(=O)(=O)CCNCc1ccc(-c2ccc3ncnc(Nc4ccc(OCc5cccc(F)c5)c(Cl)c4)c3c2)o1 [lapatinib] + C[C@@H]1CCN(C(=O)CC#N)C[C@@H]1N(C)c1ncnc2[nH]ccc12 [CP690550] (first compound 0.8 µM, partner dose 1 µM)
cell count [1]: 99.5% | cell count [2]: 102% | cell count [3]: 102% | cell count [4]: 93.9% | cell count [5]: 101% | cell count [6]: 106%
